Experimental findings from the supplement of paper PMC11417369 are described below.

± gives the standard deviation of the averaged measurements. The list shows a part of the results.

The assay concerns PfAP2-EXP AP2 domain (GST-tagged). Briefly: gcPBM binding intensity (ln(normalized median fluorescence intensity)); higher = stronger DNA binding. In a few lines: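 Binding intensity values are the highest Masliner-normalised natural-log median intensity among replicate spots of either probe orientation. The binding step lasted 1 h in 1× PBS with 1% milk, 0.2 mg/ml BSA, 0.5% salmon testes DNA and 0.03% Triton X-100, using GST-tagged P. falciparum DNA-binding domains expressed in E. coli on an Agilent 4 × 180k array of primer-extended double-stranded 36-bp intergenic genomic probes plus negative controls. Alexa488 anti-GST antibody and a 488 nm scan detected bound protein.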
Take “TGTAGATTTTGTAACACACACATATATATACATATA [CACACA_site2405]”: the “gcPBM binding intensity (ln)” value amounted to 8.4 ± 0.4.
For “AGAGATACATAAAAAAGTACATATAAAATTTAGGAA [XGTACX_site7201]”, the “gcPBM binding intensity (ln)” value stood at 8.69 ± 0.38.
As for “TAAGTATACTCATACACACACACACTAGAAAAAAAA [CACACA_site4397]”, the “gcPBM binding intensity (ln)” value was determined as 8.68 ± 0.53.
Turning to “TATTTATTTATATACACACACTTGTATAAAAAATGT [CACACA_site7048]”, the “gcPBM binding intensity (ln)” value came out at 8.36 ± 0.3.
For the sequence “TACAAATTAATATGTACACACAAATATATATATATA [CACACA_site1977]”, the “gcPBM binding intensity (ln)” value was determined as 9.93 ± 0.42.
With “ATAATATGAAACTAAGGTACACATATATTAACAGAG [XGTACX_site3842]”, the “gcPBM binding intensity (ln)” value worked out at 8.915 ± 0.078.
The value for “TGCGACCATAATAAAGCACACAATGAAAAATATATA [CACACA_site256]” was 8.84 ± 0.29; that for “TGTGCTCAAAATTATGCACACACCTAAAATTAATTT [CACACA_site8950]” was 8.64 ± 0.38.
With “CCAACTATATTATGAAGTACATATATATTATATATA [XGTACX_site5767]”, the “gcPBM binding intensity (ln)” value is 8.57 ± 0.42.
Then “TATACATATTTTATAGCACACAAATAATAATATGTA [CACACA_site8129]”, with 8.38 ± 0.32; and “AAACCTACATAACATACACACGCATATATATAATTT [CACACA_site8923]”, with 8.71 ± 0.39; and “TTTTTTTTTTTTTATTGTACATGCAAAAAATTCCAC [XGTACX_site2371]”, with 8.66 ± 0.34.
On to “TCTGTATTTCCTTATGCATGCATTAGCAAGATAATA [TGCATGCA_site483]”, for which the “gcPBM binding intensity (ln)” value was 9.96 ± 0.61.
Then “ATATATATATATTGTAGTACTTATTAAATTATTTAT [XGTACX_site6235]”, with 9.88 ± 0.3.
In the case of “TTGGGTATTTTGTGCGCACACACATGCAAAAAGAAA [CACACA_site8299]”, the “gcPBM binding intensity (ln)” value worked out at 9.26 ± 0.26.
Take “GTAAGTATATATAAATGTACTTATGAGGTCAAATTA [XGTACX_site3392]”: the “gcPBM binding intensity (ln)” value stood at 8.39 ± 0.35.
“ATATATAATCATATGTGTACATATATATTAATTTAA [XGTACX_site2839]”: the “gcPBM binding intensity (ln)” value was 8.32 ± 0.13.
The value for “AATTCAAAATAAAAATGTACATATATCAGAATATGG [XGTACX_site42]” was 8.65 ± 0.36.
The value for “AAAAAAAAAAAAAAAACACACATTTAATGAACTTAT [CACACA_site1276]” was 8.56 ± 0.3; that for “ATTATTTTTTTTCTTATACACACCATGCATCAAACT [CACACA_site2128]” was 8.96 ± 0.49.
The value for “AAAAATAAGAAAAAGTGTACTTTATTATGTATATAT [XGTACX_site2305]” was 8.54 ± 0.26; that for “ACTTGTAAGAAACACACACACACACCGATATATATA [CACACA_site4594]” was 8.74 ± 0.52; that for “AAAATTATATATTATAGTACATAAAATATTGATAAA [XGTACX_site8988]” was 8.32 ± 0.3.
With “AATAATGTATGAAATAAACACACAAGTAAGTACATA [CACACA_site8776]”, the “gcPBM binding intensity (ln)” value was found to be 8.85 ± 0.39.
Consider “ATAATTTTAAATAAATGTACATATAGATGTGTGTAA [XGTACX_site3958]”, for which the “gcPBM binding intensity (ln)” value is 8.96 ± 0.26.
On to “AAATGTTATATATAATGTACTTGTAAGAACGTTCCT [XGTACX_site2840]”, for which the “gcPBM binding intensity (ln)” value is 8.67 ± 0.45.
Then “ATGAGAAAATATATTATTTTATATGAACAAGTTTAT [XGTACX_negctrl_site372]”, with 8.21 ± 0.4; and “TATAACATTGTATGAATGCACTTTTATCTATTTTAA [GTGCAC_site9903]”, with 8.36 ± 0.28.
Regarding “TTTTTTTTTTATGTTATTAAAAAAAAAAAAAATTAA [CACACA_negctrl_site222]”, the “gcPBM binding intensity (ln)” value stood at 7.96 ± 0.47.
For “AAGATACACTTAATCGCACACGAAATTATATATTTA [CACACA_site3063]”, the “gcPBM binding intensity (ln)” value came to 8.28 ± 0.33.
The value for “ATTAATTATAATGTATGTACATAACTTTTTTATATT [XGTACX_site5784]” was 8.67 ± 0.38.
For “TATTTACCCTCATGTTGTACTTTTCATTCATTTTAT [XGTACX_site7794]”, the “gcPBM binding intensity (ln)” value stood at 9.21 ± 0.44.
For “ACAAGTTTTTTTTTATCACACACAAAAAAAAAAATA [CACACA_site8377]”, the “gcPBM binding intensity (ln)” value came out at 8.26 ± 0.45.
On to “AACATACATAGACACACACACACACGCACACGCACA [CACACA_site6373]”, for which the “gcPBM binding intensity (ln)” value worked out at 8.61 ± 0.48.
In the case of “GAAAATACGTTTAATCGTACATATATATAATATATA [XGTACX_site4243]”, the “gcPBM binding intensity (ln)” value amounted to 8.45 ± 0.33.
Then “TTTATTATTTTTAGGAGTACACAAAATAAAACAAAT [XGTACX_site8841]”, with 8.84 ± 0.33; and “TTTTGTTATAAATAATGTACATATTTATTTAAAATT [XGTACX_site6610]”, with 8.21 ± 0.37; and “AAAAACAGAAATGTAACACACAAAAATTCTATTTAT [CACACA_site4026]”, with 8.05 ± 0.27.
Then “TCTATAAAGGAATATACACACATATATAAATATGTA [CACACA_site6332]”, with 8.19 ± 0.38; and “AACCTTTATATGTAAAGTACAAAAAAGAGTAAAAAA [XGTACX_site5506]”, with 8.57 ± 0.42.
Then “TATAAAAATGTGCACACACACACATATTTATATTTA [CACACA_site6826]”, with 8.63 ± 0.11; and “TATATTATATACCATTGTACATATAATATAGGTTCT [XGTACX_site7047]”, with 8.38 ± 0.38.
For the sequence “AAAATCATTCCAAAGACATGCATTTTGCAAATAAAA [TGCATGCA_site461]”, the “gcPBM binding intensity (ln)” value came out at 8.39 ± 0.36.
The value for “AATATATGTATGTACGCATGTATGTATCTATGTATT [TGCATGCA_site389]” was 8.65 ± 0.3.
Then “TTATAATTATATACATGTACATATAATACATATATA [XGTACX_site8904]”, with 8.48 ± 0.35.
